Reference: PubChem BioAssay AID504832 (National Center for Advancing Translational Sciences (NCATS), 2011)
Screen size: about 310,000 compounds; about 18,000 (5.8%) were called active. Inconclusive results, whose numbers are uncertain, are shown with a selection of clear calls. Calls come from the whole dose curve; as a rule, active = well fitted inhibition curve with a large enough effect; inconclusive = small, poorly fitted or top-dose-only effect, or another doubt; inactive = no such curve, though single readings can be large or run the other way. No potency is given beside an inconclusive call; the fits are too rough.

assay: Primary qHTS for delayed death inhibitors of the malarial parasite plastid, 48 hour incubation; details: P. falciparum luciferase growth in erythrocytes; series mostly up to 28.7 µM
Method in brief: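 Luminescence readout; reporter = integrated firefly luciferase in P. falciparum. RBC culture at 2% hematocrit, 0.1% parasitemia final, 37 C/5% CO2; decreased signal taken as growth inhibition.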
% is set by controls: 0 for no effect and ±100 for the full control effect; potency is the fitted concentration of half-maximal effect; tags give direction and shape of the fitted curve.

Structure (SMILES)	Potency	activity change, negative = inhibition
Cc1cccc(C2c3[nH]c4ccccc4c3CCN2C(=O)c2cc(CC(C)C)[nH]c(=O)n2)n1 (stereo not drawn)	inconclusive [inhibitor, single point]	
COc1ccc(C(C)=O)cc1CSc1ccc(S(=O)(=O)N2CCOCC2)cn1	inconclusive [inhibitor, single point]	
COc1ccc(N2CCN(C(=O)C(=O)c3c(C)n(C)c4ccccc34)CC2)cc1	inactive	
CCCCN1C(=O)/C(=C2\SC(N3CCCCC3)=NC2=O)c2ccccc21	inactive	
Cc1ccc(-n2ncc3c(SCC(N)=O)ncnc32)cc1C	inactive	
O=C(OCc1ccc([N+](=O)[O-])cc1)c1cc([N+](=O)[O-])ccc1N1CCOCC1	inconclusive [inhibitor, single point]	
Cc1ccccc1NS(=O)(=O)c1ccc(NC(=O)CSCc2ccc(Br)cc2)cc1	inconclusive [inhibitor, single point]	
CCSc1nnc(CNC(=O)C23CC4CC(CC(C4)C2)C3)n1Cc1ccccc1	inconclusive [inhibitor, partial curve]	
CCOC(=O)c1sc(NC(=O)C2CC2)cc1C	inconclusive [inhibitor, single point]	
Nc1ccccc1Sc1cc(Cl)nnc1Cl	inconclusive [inhibitor, partial curve]	
COC(=O)c1ccc(CSc2nnc(CNC(=O)c3ccc(OC)cc3)o2)o1	inactive	
Cc1ccc(S(=O)(=O)/N=C(/c2ccc(F)cc2)N2CCCCC2)cc1	inactive	
O=C(N/N=C1\CCCc2ccccc21)c1ccc([N+](=O)[O-])cc1Cl	inconclusive [inhibitor, partial curve, poor fit]	
Cc1cc(NC(=O)c2c(-c3c(F)cccc3Cl)noc2C)no1	inconclusive [inhibitor, partial curve, poor fit]	
O=C(C[n+]1cccc(CNC(=O)c2ccc(OC(F)F)cc2)c1)Nc1ccc(F)cc1	active: 8.28 µM	
N#Cc1c(/N=C/C=C/c2ccccc2)sc2c1CCCC2	inactive	
CCc1nccn1CCC(=O)N1CCc2c([nH]c3ccccc23)C1CC(C)C (stereo not drawn)	inconclusive [inhibitor, single point]	
COc1ccc(CCNc2nc(N3CCOCC3)nc(N3CCOCC3)n2)cc1OC	inactive	
CCC(C)(c1nnnn1-c1c(C)cccc1C)N(N=O)c1ccccc1Cl (stereo not drawn)	inconclusive [inhibitor, partial curve, poor fit]	
CCc1ccc(CN2CCCC(C(=O)N3CCCCC3)C2)cc1 (stereo not drawn)	inactive	
C=C[C@@](C)(O)CC[C@@H]1[C@@]2(C)CCCC(C)(C)[C@@H]2CC[C@@]1(C)O	inconclusive [inhibitor, partial curve, poor fit]	
CN(c1ccc(OC(=O)CC2OC(=O)c3ccccc32)cc1)S(=O)(=O)c1ccccc1 (stereo not drawn)	inactive	
CCOc1ccc(NS(=O)(=O)c2ccc(C(=O)NCC3(N4CCCCC4)CCCCC3)cc2)cc1	inconclusive [inhibitor, single point]	
CN(c1ccccc1)c1nc(N)c(C#N)c(CC#N)c1C#N	inactive	
CC1CCc2sc3nc(N4CCN(CCO)CC4)n4ncnc4c3c2C1 (stereo not drawn)	inactive	

Structure (SMILES)	Potency	activity change, negative = inhibition
O=C(C1CCN(S(=O)(=O)c2cccc3cccnc23)CC1)N1CCN(c2ccccn2)CC1	inconclusive [inhibitor, single point]	
CC(C(=O)NC(=O)NC1CCCCC1)N1CCN(c2ccccn2)CC1 (stereo not drawn)	inactive	
CC(C)CC(=O)Nc1ccc(-c2nc3ccccc3c(=O)o2)cc1	inactive	
COc1ccc(-c2ccc(=O)n(CC(=O)Nc3ccc4c(c3)OCCO4)n2)cc1	inactive	
CN(C)C(=O)Oc1ccc(-c2cn3cc(C(F)(F)F)ccc3n2)cc1	inactive	
Cc1ccc(C(=O)Nc2cccc(-c3ccc(N4CCOCC4)nn3)c2)cc1C	inconclusive [inhibitor, single point]	
COC(=O)c1sccc1NC(=O)c1ccoc1C	inactive	
CC(C)Cc1ccc(C(C)C(=O)Nc2ccccc2O)cc1 (stereo not drawn)	inconclusive [inhibitor, single point]	
CNC(=O)c1cc2cc(Cc3ccccc3Cl)ccc2oc1=O	inactive	
COc1ccc(NS(=O)(=O)c2cc(NC(=O)c3ccc(=O)[nH]c3)ccc2N2CCCC2)cc1	inconclusive [inhibitor, single point]	
Cc1ccc(C(=O)NC(=S)Nc2cccc(NC(=O)c3ccccc3)c2)cc1[N+](=O)[O-]	inactive	
COc1ccc(CN(C2CCCC2)S(=O)(=O)c2ccc(-n3cnnn3)cc2)cc1	inconclusive [inhibitor, partial curve]	
COc1ccc(-n2c(-c3cccc(OC)c3)nc(=S)c3c2CCCC3)cc1	inconclusive [inhibitor, partial curve]	
COCCNC(=S)N/N=C(\C)c1ccc(-n2ccnc2)cc1	inconclusive [inhibitor, single point]	
COc1ccccc1CNC(=O)C1CCN(S(=O)(=O)c2ccc(-n3cnnn3)cc2)CC1	inconclusive [inhibitor, full curve, poor fit]	
CCCCCn1c(=O)[nH]c2cc(C(=O)NCCN3C(C)CCCC3C)ccc2c1=O (stereo not drawn)	inconclusive [inhibitor, partial curve]	
CC1(C)C(=O)Nc2ccccc2N1C(=O)CSc1nnc2ccccn12	inactive	
CN(/N=C/c1ccncc1)c1cnn(-c2ccc(F)c(Cl)c2)c(=O)c1Cl	inconclusive [inhibitor, partial curve, poor fit]	
Cc1nc(NC(=O)c2ccco2)sc1-c1csc(Nc2ccc(Cl)cc2)n1	active: 9.28 µM	
COc1ccc(NS(=O)(=O)c2cccc(C(=O)N(C)Cc3cccs3)c2)cc1	inconclusive [inhibitor, single point]	
O=C1Nc2ccccc2C12OC1CCCCC1O2 (stereo not drawn)	active: 11.7 µM	
Cc1ccc(C)c(S(=O)(=O)N2CCN(CC(=O)NC(C)c3ccccc3)CC2)c1 (stereo not drawn)	inconclusive [inhibitor, partial curve, poor fit]	
Cc1ccccc1-n1c(SCC(=O)NCc2cccs2)nnc1-c1ccncc1	inconclusive [inhibitor, partial curve, poor fit]	
Cc1c(Cl)cccc1N=Cc1ccc([N+](=O)[O-])s1	inconclusive [inhibitor, full curve]	
Cc1ccc(Nc2nc(N)nc(CCl)n2)cc1	inconclusive [inhibitor, single point]	

Structure (SMILES)	Potency	activity change, negative = inhibition
CC1CCCCC1NC(=O)CSc1ccsc1[N+](=O)[O-] (stereo not drawn)	inconclusive [inhibitor, partial curve, poor fit]	
CC1CCCCN1Cc1nc2c(c(=O)n(C)c(=O)n2C)n1CCc1ccccc1 (stereo not drawn)	inactive	
COc1ccc(-c2sc3ccc(N4CCOCC4)cc3c2-c2ccc(O)cc2)cc1	inconclusive [inhibitor, partial curve, poor fit]	
O=C(c1ccccc1)C1NC1c1ccccc1 (stereo not drawn)	inactive	
Nc1ccc2nc(CCCCc3nc4ccccc4[nH]3)[nH]c2c1	inconclusive [inhibitor, single point]	
COc1ccc(/C=N/Nc2nc(Nc3ccccc3)nc(N3CCCC3)n2)cc1[N+](=O)[O-]	active: 2.08 µM	
CCCCN(C(=O)c1cccc(S(=O)(=O)N2CCN(C)CC2)c1)c1c(N)n(CCC)c(=O)[nH]c1=O	inactive	
CC1(C(=O)O)COC(c2ccc(Cl)cc2)OC1 (stereo not drawn)	active: 2.94 µM	
N#C/C(=N\Nc1ccc(S(=O)(=O)N2CCc3ccccc32)cc1)C(N)=S	inconclusive [inhibitor, single point]	
OCc1cn(Cc2ccc(O)c3ncccc23)cn1	active: 5.22 µM	
COc1cc2c(cc1OC)C(C(C(=O)N(CCc1ccc(OC)c(OC)c1OC)CCc1ccc(OC)c(OC)c1OC)c1ccccc1)=NCC2 (stereo not drawn)	active: 1.35 µM	
COc1cc(/C=C2\SC(N)=NC2=O)ccc1OCC(=O)Nc1ccc(C)cc1	inconclusive [inhibitor, single point]	
CN1CCc2c(sc(N)c2C(N)=O)C1	inactive	
CC(C)(C)NC(=O)CN(C(=O)CNC(=O)c1cccs1)c1ccc2c(c1)OCCO2	inconclusive [inhibitor, single point]	
N#Cc1ccc(C2N=C(c3ccccc3)NO2)cc1 (stereo not drawn)	inactive	
Cc1nn(-c2ccccc2)nc1-c1nnc(-c2ccc(C(F)(F)F)cc2)o1	active: 0.262 µM	
COc1ccc(Cl)cc1NC(=O)CN(C1CCCCC1)S(C)(=O)=O	inactive	
COc1ccccc1N(CC(=O)NCc1ccccc1)C(=O)CCC(=O)Nc1cc(C)ccn1	inconclusive [inhibitor, partial curve, poor fit]	
CCOc1ccc(NC(=O)C[n+]2ccc(N(C)C)cc2)cc1	active: 0.657 µM	
O=C(CSc1ccc(Br)cc1)N1CCOCC1		inactive: -0.6% [at 0.00184 µM]
Cc1ccc(C)c2[nH]c(=O)c(CN(CC3CCCO3)S(=O)(=O)c3ccc4c(c3)OCCO4)cc12 (stereo not drawn)	inconclusive [inhibitor, partial curve]	
COc1cc(/C=N\NC(=O)CC#N)ccc1OC/C=C/c1ccccc1	inactive	
CCN(CC(=O)Nc1c(F)cccc1F)C(=O)c1ccc(C)c(S(=O)(=O)N2CCCCC2)c1	inactive	
